Data: the supplement of paper PMC12889115
This is one part of the list. Rule as the data show it: active = 25% or less and inactive = the rest. Most values come without repeats; read them as rough.

Experiments:
[1] = tested on: Salmonella enterica serovar Typhimurium SL1344; experiment: bacterial growth OD600 after 18 h in MHB with 0.5 µg/mL polymyxin B; higher = more bacterial growth (less inhibition); settings: 25 µM; polymyxin B 0.5 µg/mL; system: broth
Experimental: (§1)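 Secondary screen of the 553 primary hits at 25 µM. (i) S. Typhimurium SL1344 grown in Mueller-Hinton broth with 0.5 µg/mL polymyxin B, OD600 read after 18 h. (ii) SAFIRE assay: RAW 264.7 macrophages infected with S. Typhimurium sifB::gfp (MOI 30); compound added 2 h post-infection; cells fixed at 18 h; GFP-positive pixel fraction per macrophage imaged by confocal microscopy and expressed as % of DMSO control.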

[2] = tested on: Salmonella enterica serovar Typhimurium SL1344; experiment: intramacrophage bacterial GFP load (SAFIRE), percent of DMSO control (% of DMSO); higher = more intracellular bacteria (less inhibition); settings: 25 µM; system: infected RAW 264.7 macrophages
Experimental: as §1
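For bacterial growth OD600 after 18 h in MHB with 0.5 µg/mL polymyxin B in this document: polymyxin B level opens the outer membrane while sparing the inner membrane, with novobiocin wells as reference growth inhibitor.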
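For intramacrophage bacterial GFP load (SAFIRE), percent of DMSO control in this document: compounds tested were the hits of an earlier 50 µM broth growth screen of a drug-like diversity library run with polymyxin B.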

SMILES | bacterial growth OD600 [1] | intramacrophage bacterial GFP load [2]
CC#CCN1C(=O)NC(CCCc2ccccc2)(C2CCN(C(=O)/C=C/c3ccccc3)CC2)C1=O (stereo not drawn) | 0 | active: 24.7
COc1cccc(CN2CCC(C(=O)Nc3ccccc3-c3cccc(OC)c3)CC2)c1 | -0.005 | active: 0.0359
COc1ccc(-c2nn(-c3ccccc3C)cc2CN(CC2CCC(=O)N2)C(C)C)cc1F (stereo not drawn) | 0.008 | active: 21.1
O=C(c1cc(COc2ccc3c(c2)CCCC3)on1)N1CCN(C2CCCC2)C(=O)C1 | 0 | inactive: 128
O=C(CCC1(Cc2ccc(Cl)cc2)CCC(=O)N1)NCc1ccc(C(F)(F)F)cc1 (stereo not drawn) | 0.004 | inactive: 38.4
CC(c1ccon1)N(C)C(=O)CC1(c2ccccc2)CC(=O)N(Cc2ccc3c(c2)OCO3)C1=O (stereo not drawn) | 0.446 | inactive: 156
CC(C)S(=O)(=O)c1ncc(CN(C)Cc2ccco2)n1Cc1ccccc1F | 0.007 | inactive: 152
COc1ccc(CC2(CCC(=O)N3CC4(C)CC3CC(C)(C)C4)CCC(=O)N2)c2ccccc12 (stereo not drawn) | 0.006 | inactive: 29.8
CN(C(=O)CC1(c2ccccc2Cl)CC(=O)N(C2CCCC2)C1=O)C(C1CC1)C1CC1 (stereo not drawn) | 0 | inactive: 84.5
Cc1ccccc1-c1nc(CN2CCOc3ccc(Cl)cc3C2)c(C)o1 | -0.011 | inactive: 33.2
COCc1noc(-c2ccc(N3CCC(c4ccccc4F)C3)nc2)n1 (stereo not drawn) | -0.002 | inactive: 176
C#Cc1cccc(C(=O)N2CCc3onc(-c4cccc(F)c4)c3C2)c1 | -0.003 | inactive: 140
O=C(NCCc1ccccn1)c1ccc(OC2CCN(C(=O)C3CC3)CC2)cc1 | -0.006 | inactive: 91
CCCCN(Cc1ccccc1)C(=O)CCC1(Cc2ccc(SC)cc2)CCC(=O)N1 (stereo not drawn) | 0.003 | inactive: 85.2
Cc1oc(-c2cccs2)nc1CN1CCCCC1c1nccs1 (stereo not drawn) | 0.619 | inactive: 93.2
CC(COc1ccccc1)N1CCc2onc(-c3ccc4c(c3)OCO4)c2C1 (stereo not drawn) | -0.003 | inactive: 60.1
O=C(CC(c1ccccc1)c1ccccc1Cl)N1CCCC1 (stereo not drawn) | 0.003 | active: 11.7
COc1ccc(CC2(CCC(=O)NCCc3ccccc3C(F)(F)F)CCC(=O)N2)c2ccccc12 (stereo not drawn) | -0.049 | active: 1.07
Cc1cc2c(c(-c3cnccn3)c1)OC(CNC(=O)/C=C/c1cccs1)C2 (stereo not drawn) | 0.009 | inactive: 114
Cc1cc(OCc2cc(C(=O)N(C)Cc3ccccn3)no2)cc(C)c1Cl | 0.001 | inactive: 124
COc1cc(-c2nc(CN(CCO)Cc3cccs3)c(C)o2)ccc1F | 0.004 | inactive: 34.3
COCCCN1C(=O)CC(CC(=O)N2CCC(Cc3ccccc3)CC2)(c2ccccc2OC)C1=O (stereo not drawn) | -0.012 | inactive: 58.6
CN(CCc1ccccc1)C(=O)CC1(c2ccccc2)CC(=O)N(Cc2ccc3c(c2)OCO3)C1=O (stereo not drawn) | -0.003 | inactive: 116
COc1cccc(C2(CC(=O)N(C)Cc3nc4ccccc4s3)CC(=O)N(C3CCCC3)C2=O)c1 (stereo not drawn) | -0.009 | inactive: 112
Fc1ccc(CN2CCOc3ccc(CN4CCC(Oc5cccnc5)CC4)cc3C2)cc1F | 0.009 | active: 4.82
CC[C@H](C)[C@H](NC(=O)CCC1(Cc2ccc(OC)cc2F)CCC(=O)N1)C(=O)OC (stereo partly drawn) | 0.483 | inactive: 117
CCCc1ccc2oc(C(=O)NCCc3cccnc3)c(C)c2c1 | -0.004 | active: 20.1
O=C(c1ccccc1OC1CCN(Cc2ccc(Cl)s2)CC1)N1CCCCC1 | 0.003 | active: 6.99
CCOC(=O)C1(Cc2ccccc2C(F)(F)F)CCN(Cc2ccc(COC)o2)CC1 | 0.004 | active: 6.24
